Test results published in PubChem BioAssay AID1745853 (National Center for Advancing Translational Sciences (NCATS), 2022).
The other results are listed elsewhere or left out. Shown are side measurements of this screen, not its main read-out; they come without a call.

How the values were obtained:
Assay in all cases: Primary Screen for Target Class Profiling of Small Molecule Inhibitors of Methyltransferases
[1] = molecular target: Glycine N-methyltransferase (Homo sapiens) (UniProt Q14749); settings: purified enzyme, MTase-Glo SAH luminescence; measured here: GNMT inhibition; at 40 µM; stronger effect = lower value
How it was run: (§1)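 Each enzyme was reacted with SAM and its substrate, with compounds tested once at 40 uM; SAH formed was read by MTase-Glo luminescence.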

[2] = molecular target: Guanidinoacetate N-methyltransferase (Homo sapiens) (UniProt Q14353); settings: purified enzyme, MTase-Glo SAH luminescence; measured here: GAMT inhibition; at 40 µM; stronger effect = lower value
How it was run: as §1

[3] = molecular target: Histamine N-methyltransferase (Homo sapiens) (UniProt P50135); settings: purified enzyme, MTase-Glo SAH luminescence; measured here: HNMT inhibition; at 40 µM; stronger effect = lower value
How it was run: as §1

[4] = molecular target: Nicotinamide N-methyltransferase (Homo sapiens) (UniProt P40261); settings: purified enzyme, MTase-Glo SAH luminescence; measured here: NNMT inhibition; at 40 µM; stronger effect = lower value
How it was run: as §1

[5] = molecular target: Phenylethanolamine N-methyltransferase (Homo sapiens) (UniProt P11086); settings: purified enzyme, MTase-Glo SAH luminescence; measured here: PNMT inhibition; at 40 µM; stronger effect = lower value
How it was run: as §1
On the % scale 0 is the no-effect control and ±100 the full control effect.

SMILES | activity change, negative = inhibition [1] [%] | activity change, negative = inhibition [2] [%] | activity change, negative = inhibition [3] [%] | activity change, negative = inhibition [4] [%] | activity change, negative = inhibition [5] [%]
COC(=O)COc1ccc2c(-c3ccccc3)cc(=O)oc2c1 | -5.54 | 0 | 3.26 | -7.96 | -22.2
CS(=O)(=O)c1ccc(CN2CCC(C(O)c3ccccn3)CC2)cc1 (stereo not given) | -3.66 | -3.27 | -2.37 | -7.07 | -5.5
CC1(C(=O)NCc2ccccc2)Cn2c(ccc2-c2ccco2)C(=O)N1CCc1ccco1 (stereo not given) | -4.87 | 0.752 | 1.27 | -3.36 | -3.91
Cc1cccc(NC(=O)N2Cc3c(sc4c3CCCC4)-n3cccc3C2c2ccccc2)c1 (stereo not given) | -4.19 | 4.57 | -4.83 | -5.3 | -0.767
Cc1ccc(NS(=O)(=O)c2ccc3[nH]c4c(c3c2)CCCC4)cc1Cl | -1.71 | 4.24 | 1.38 | -15.2 | 0.636
O=C(O[C@H]1[C@H](Oc2ccc(O)cc2CO)O[C@H](CO)[C@@H](O)[C@@H]1O)c1ccccc1 | 0 | 7.38 | 10.3 | -4.87 | 4.36
CCN1CCN(CCN2CC3(CCN(C4CCOCC4)CC3)OC2=O)CC1 | -4.6 | -5.68 | -2.85 | -9.87 | 8.53
Cc1cnc(-c2ccccc2)n1C1CCN(S(=O)(=O)c2ccc3c(c2)OCCO3)CC1 | -7.46 | 0.502 | -1.35 | -20.2 | -1.48
COc1ccc(N2C(=O)c3cc4ccccc4n3CC2(C)C(=O)NCCC(C)C)c(OC)c1 (stereo not given) | 1.26 | 3.46 | 1.68 | 0.697 | -0.586
COc1cccc(CN2C(=O)c3cc4ccccc4n3CC2(C)C(=O)NCCCOC(C)C)c1OC (stereo not given) | -3.55 | 5.32 | -0.768 | 6.25 | -0.313
CC(C)CCNC(=O)C1(C)Cn2nc(C(=O)NCc3ccc4c(c3)OCO4)cc2C(=O)N1C (stereo not given) | 1.64 | 0 | 2.37 | 2.98 | 2.67
COCCCNC(=O)CCc1nnc2n(CCc3ccccc3)c(=O)c3ccccc3n12 | -11.2 | -0.023 | -2.21 | -1.16 | -7.29
COc1ccc(CC(=O)NC2CCN(C(=O)c3ccc(-c4cccs4)cc3)CC2)cc1 | -3.28 | -1.45 | 1.22 | -3.13 | -3.85
Cc1ccc(Cn2c(=O)c3ccc(C(=O)NC(C)C)cc3n3c(=O)n(Cc4ccccc4F)nc23)cc1 | 3.17 | 0.594 | -3.17 | 1.3 | 4.82
O=C(NCc1ccccc1F)c1ccc2c(=O)nc3c(-c4cccc(F)c4)n[nH]n3c2c1 | -7.02 | 3.81 | 8.28 | 0.413 | -2.87
Cc1ccc(NC(=O)Cn2nc3n(Cc4ccc(F)cc4)c(=O)c4ccccc4n3c2=O)c(Cl)c1 | 0.171 | 0.517 | 1.9 | -1.81 | -2.09
COC(=O)c1cc2n(n1)CC(C)(C(=O)NC1CCCCCC1)N(c1ccc(F)cc1)C2=O (stereo not given) | -3.55 | 0.415 | -0.641 | -6.14 | -6.4
CC(C)C1NC(=O)C2CCCN2C1=O (stereo not given) | 4.43 | 3.75 | 11 | -8.46 | 6.35
COCCOc1nc(-c2ccc(Cl)c(Cl)c2)n(-c2ccc(NC(=O)CCl)cc2)n1 | -16.9 | -11.5 | -8.61 | -31.2 | -6.34
CCCC1c2cccn2CCN1C(=O)NCCOC (stereo not given) | 1.42 | 0 | 9.04 | 0.275 | 3.36

SMILES | activity change, negative = inhibition [1] [%] | activity change, negative = inhibition [2] [%] | activity change, negative = inhibition [3] [%] | activity change, negative = inhibition [4] [%] | activity change, negative = inhibition [5] [%]
CCCn1c(=O)c2ccc(C(=O)NCC(C)C)cc2n2c(=O)n(CC(=O)c3ccccc3)nc12 | -1.84 | 4.59 | 3.21 | -1.43 | 2.68
CCCC1c2cccn2CCN1C(=O)Nc1cccc(SC)c1 (stereo not given) | -4.59 | 0 | -23.7 | -6.98 | -1.6
CCCn1c(=O)c2ccc(C(=O)NCC(C)C)cc2n2c(=O)n(CC(=O)N(C)c3ccccc3)nc12 | 7.92 | 0.76 | 3.18 | 8.56 | 7.62
NC(=O)[C@H]1C[C@@H](O)[C@H](O)[C@H]2[C@@H]1SC(=Nc1ccc(Cl)cc1)N2Cc1ccc(F)cc1 | -2.24 | -0.408 | -0.689 | -2.94 | 4.07
COc1ccc(C(=O)N2CCCC3(CN[S+](=O)([O-])c4ccccc4N3)C2)cc1 (stereo not given) | -2.21 | -0.92 | -0.697 | -3.8 | 1.53
CC12CCC(C(OC3OC(COC4OCC(O)(CO)C4O)C(O)C(O)C3O)C1)C(C)(C)O2 (stereo not given) | 3.1 | 3.11 | 9.57 | -8.02 | 6.41
C[C@@H]1CN(C(=O)c2ccc(Cn3cnnn3)cc2)C[C@@]1(O)C1CCC1 | -0.516 | -1.21 | 1 | -0.55 | -1.86
CCCN(CCC)CCCN1C(=O)c2cc3sccc3n2CC1(C)C(=O)NC1CCCCCC1 (stereo not given) | 4.84 | 0.375 | -3.8 | 4.44 | 5.4
C[S+](=O)([O-])c1ccc(-c2cc(C(=O)N3CCOCC3)nn3cccc23)cc1 | -1.88 | 0.895 | -1.32 | -1.94 | 0.451
COc1ccc(C)cc1NC(=O)Cn1c(=O)oc2cc(S(=O)(=O)N3CCCC3)ccc21 | -7.33 | 3.18 | -1.14 | -1.65 | -5.2
Oc1ccc(C2CNCCc3c2cc(O)c(O)c3Cl)cc1 (stereo not given) | -43.7 | 0.885 | -40.2 | -9.6 | 4.68
CC1CCCCC1NC(=O)Cn1ccc2cc(S(=O)(=O)N3CCCC3)ccc21 (stereo not given) | -1.79 | 0.7 | -5.59 | -7.75 | -7.92
N#Cc1cc2c(=O)n(CCCCN3CCCC3)ccc2[nH]c1=O | -2.88 | -1.58 | -32.4 | -0.841 | 1.46
Cc1ccc(-c2n[nH]n3c2nc(=O)c2ccc(C(=O)NC4CCC(C)CC4)cc23)cc1 (stereo not given) | -14.6 | 1.17 | 4.03 | 1.77 | 0.563
C=C1C(=O)OC2CC(COC(=O)C(C)C)=C(C(C)CCCOC(C)=O)[C@@H](OC(C)=O)C12 (stereo not given in full) | 0 | 5.76 | 7.03 | -5.6 | 3.44
CC1CCC(NC(=O)C2(C)Cn3c(cc4sccc43)C(=O)N2Cc2ccc(OC(C)C)cc2)CC1 (stereo not given) | -2.99 | 3.83 | -3.3 | -2.02 | -6.19
Cc1noc(-c2ccc(OC3CN(S(=O)(=O)c4c(C)noc4C)C3)cc2)n1 | -1.1 | 1.06 | 0.921 | -2.17 | -8
C=C1C(=O)OC2C(OC(=O)C=C(C)C)C(C)=C3C(=O)C=C(C)C3C(O)C12 (stereo not given) | 2.64 | 1.22 | 9.99 | -7.89 | 4.19
CCC(C)C(=O)O[C@H]1[C@@H](OC(=O)c2ccoc2)C[C@](C)(O)[C@]23OC(C)(C)[C@H](C[C@H](OC(=O)c4ccoc4)[C@]12COC(C)=O)[C@H]3OC(C)=O (stereo not given in full) | 0 | 1.21 | 2.67 | -12.5 | 5.78
